Source: PubChem BioAssay AID2546 (National Center for Advancing Translational Sciences (NCATS), 2010)
Among all 310,000 compounds or so, about 11,000 (3.5%) were called active. The inconclusive results got no clear call from the source; some entries with a clear call stand among them for comparison. The call rests on the fitted dose curve; in most records, active means well fitted inhibition curve with a large enough effect; inconclusive means small, poorly fitted or top-dose-only effect, or effect the other way; inactive means flat fitted curve, though single readings scatter. Potencies of inconclusive entries are left out as doubtful fits.

Experiment: VP16 counterscreen qHTS for inhibitors of ROR gamma transcriptional activity;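 further: Gal4-VP16 expression switched on by copper sulfate through the metallothionein promoter; nearly all actives have a fitted effect of over 50% in size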
Settings: Drosophila S2 Gal4-VP16 UAS-luciferase, luminescence, 20 h; activity, negative = inhibition: at 53.6 µM (top of the series)
On the % scale 0 is the no-effect control and ±100 the full control effect; potency means the concentration at half of the fitted maximal effect; tags describe the fitted curve by direction and shape.

Q: Which Potency does the source give for O=C(c1ccco1)c1cc2c(ccc3ccccc32)oc1=O here?
A: inconclusive [inhibitor, single point]

Q: For CN(C)c1cc2c(c(N(C)C)c1)C(=O)c1ccccc1C2=O, which Potency is on record?
A: inconclusive [inhibitor, single point]

Q: For Oc1ccccc1N=Nc1ccccc1O, which “activity, negative = inhibition” value is on record?
A: inactive: -23.8%

Q: With COC(=O)Nc1nc2ccc(Sc3ccccc3)cc2[nH]1 as the compound, how does the Potency read?
A: inconclusive [inhibitor, single point]

Q: Which Potency does the source give for Cc1cc2ccccn2c1C(=S)NC(=O)c1ccccc1 here?
A: active: 3.55 µM

Q: With CCN1CCN(c2cc3nc(C)n(Cc4ccccc4)c(=O)c3cc2NC(=O)c2ccccc2F)CC1 as the compound, how does the Potency read?
A: active: 11.2 µM

Q: Which “activity, negative = inhibition” value does the source give for COc1cccc(CNc2ncc(Br)cc2Br)c1O here?
A: inactive: 1.54%

Q: With Cc1ccc(C)c(OCc2cc(C(=O)N3CCc4sccc4C3)no2)c1 as the compound, how does the Potency read?
A: inconclusive [inhibitor, partial curve]

Q: For CN(C(=O)c1cccc(N2C(=O)C3CC=CCC3C2=O)c1)C1CCCCC1 (stereo not given), which Potency is on record?
A: inconclusive [inhibitor, single point]

Q: Which Potency does the source give for COc1cccc(N2CCN(Cc3nc4scc(-c5ccccc5)c4c(=O)[nH]3)CC2)c1 here?
A: inconclusive [inhibitor, single point]

Q: With CCNC(=S)/N=C(/Nc1ccccc1)Nc1nc(C)cc(C)n1 as the compound, how does the Potency read?
A: active: 3.16 µM

Q: Which “activity, negative = inhibition” value does the source give for Cc1cc(C)n2c(SCC(=O)NCc3ccc4c(c3)OCO4)nnc2n1 here?
A: inactive: -6.73%

Q: For O=c1[nH]c(Cc2ccccn2)nc2scc(-c3ccc(Cl)cc3)c12, which Potency is on record?
A: inconclusive [inhibitor, single point]

Q: Which Potency does the source give for COc1ccc(NC(=O)N2CCC3(CC2)CCN(S(C)(=O)=O)CC3)cc1 here?
A: inconclusive [activator, single point]

Q: With CCOC(=O)Cc1cc(=O)n2[nH]cc(-c3cccc(Br)c3)c2n1 as the compound, how does the Potency read?
A: inconclusive [inhibitor, single point]

Q: Which Potency does the source give for Cc1ccccc1CNC(=O)c1ccc2nc(N3CCOCC3)sc2c1 here?
A: inconclusive [inhibitor, single point]

Q: Which Potency does the source give for Cc1ccccc1C(=O)Nc1nnc(SCC(=O)NCc2ccco2)s1 here?
A: inconclusive [inhibitor, single point]

Q: Which Potency does the source give for CC1=NNC(=O)C1CCC(=O)N/N=C/C(Br)=C/c1ccccc1 (stereo not given) here?
A: inconclusive [inhibitor, single point]

Q: Which Potency does the source give for Cc1ncc(CO)c(CNc2ccc(Oc3ccccc3)cc2)c1O here?
A: inconclusive [inhibitor, single point]

Q: Which Potency does the source give for COC(=O)COc1ccc(S(=O)(=O)Nc2ccc3c(c2)OCCO3)cc1C here?
A: inconclusive [inhibitor, single point]
